Results as given in PubChem BioAssay AID463173 (ICCB-Longwood Screening Facility, Harvard Medical School, 2010).
The whole screen tested about 52,000 compounds, of which about 4,300 (8.3%) were called active. Cut-off read from the data, not from the text of the source: active = survival mostly below about 52% (no sharp cut-off); inactive = mostly above about 56%. The list shows a part of the results.

tested on: DeltatarO mutant; assay: S. aureus survival, RN4220 and DeltatarO strains – OD600, teichoic acid synthesis inhibitors, primary screen (AID 463173); conditions: S. aureus RN4220 wild type/DeltatarO growth, OD600, 18 h, hits give low values, screened at 18.75 µg/mL (by protocol)

| Structure (SMILES) | survival |
| --- | --- |
| CCc1ccc(CNC(=O)c2ccc3nc(C(C)C)oc3c2)cc1 | inactive: 82% |
| Cc1nn(-c2nc(-c3ccc(F)cc3)cc(C(F)(F)F)n2)c(C)c1Cl | active: 5% |
| COc1cc(C(=O)Nc2ccc(NC(=O)c3ccc(Br)cc3)cc2)cc(OC)c1OC | inactive: 75% |
| CCC1CCCCN1C(=O)CSc1nc2c([nH]c3ccccc32)c(=O)n1-c1cccc(OC)c1 (centres undefined) | inactive: 66% |
| Cc1ccc(-n2ccnc(NCCc3ccc(S(N)(=O)=O)cc3)c2=O)cc1C | inactive: 81% |
| Cc1oc(-c2cccc(Cl)c2)nc1CSc1nc2ncccc2[nH]1 | inactive: 71% |
| Cc1cccc(N2CCN(C(=O)c3cc4c(=O)n(C)c5ccccc5c4s3)CC2)c1C | active: 47% |
| O=C(O)c1ccc2nc(-c3cc4cc(F)ccc4oc3=O)[nH]c2c1 | inactive: 117% |
| COC(=O)c1ccc(Cl)cc1NC(=O)N(C)CCc1c(C)nn(C)c1C | inactive: 115% |
| CCOc1ccc(NC(=O)C(=O)NCCc2csc3nc(-c4ccccc4F)nn23)cc1 | active: -1% |
| Cc1ccc(CN2CCN(C3CCN(S(=O)(=O)c4ccc(C)cc4)CC3)C(=O)C2=O)cc1 | inactive: 85% |
| COc1cc(NC(=O)C(CC(C)C)NS(=O)(=O)c2ccc3c(c2)oc(=O)n3C)c(C(=O)O)cc1OC (centres undefined) | inactive: 121% |
| CCOC(=O)c1ccc(NC(=O)c2csc3c2CCCCC3)cc1 | active: 39% |
| CCOc1ccc(NC(=O)Cn2cc(C(=O)c3ccc(C)c(C)c3)c(=O)c3cc(OC)c(OC)cc32)cc1 | inactive: 95% |
| Cc1noc(C)c1S(=O)(=O)N(CC(=O)NCc1ccccc1Cl)c1ccc(C(C)C)cc1 | inactive: 88% |
| O=C(Nc1ccc(F)cc1F)c1c2c(nc3ccccc13)C(=O)N(C1CCCCC1)C2 | inactive: 81% |
| O=C(NCc1cccs1)C1CCN(C(=O)N2CCOc3ccccc32)CC1 | inactive: 107% |
| O=C(CSc1nc2c([nH]c3ccccc32)c(=O)n1-c1ccccc1)c1ccccc1 | inactive: 77% |
| COc1ccc(OC)c(NC(=O)c2ccc(CSc3nnnn3C)cc2)c1 | inactive: 101% |
| O=C(Nc1c(-c2ccccc2)nc2ccccn12)c1ccc(Br)cc1 | active: 31% |
| COc1ccc(Cn2ccnc2SCC(=O)NCc2ccccc2)cc1 | inactive: 90% |
| CCC1CCCCN1C(=O)c1nn(-c2ccc(C)cc2)c(=O)c2c1c1ccccc1n2C (centres undefined) | inactive: 97% |
| CCOc1ccc(CCNC(=O)c2cnc3sc(N4CCOCC4)nn3c2=O)cc1 | inactive: 67% |

| Structure (SMILES) | survival |
| --- | --- |
| CCOc1ccc(C2C(=O)N(C3CCCCCC3)CC(=O)N2CCc2ccccc2)cc1OC (centres undefined) | inactive: 88% |
| COC(=O)CSc1nnc2n1C(C)(C)Cc1ccccc1-2 | inactive: 103% |
| COc1ccccc1-c1ccnc2[nH]n(-c3ccccc3)c(=O)c12 | inactive: 64% |
| CCOc1ccc(C(=O)Nc2ccc(S(=O)(=O)N3CCCCC3c3cccnc3)cc2)cc1 (centres undefined) | inactive: 73% |
| Cc1cccc(N2CCN(c3nc4ccccc4c(=O)n3-c3ccc(Cl)cc3)CC2)c1C | inactive: 78% |
| Cc1ccc(C)c(S(=O)(=O)NCC(c2ccco2)S(=O)(=O)c2ccc(F)cc2)c1 (centres undefined) | inactive: 124% |
| COc1cccc(C2C3=C(CCCC3=O)N(C)C3=C2C(=O)CCC3)c1 | inactive: 85% |
| Cc1cccc(C=Nc2ccc(-c3nc4ccccc4o3)cc2)c1O | inactive: 99% |
| COc1ccc(CN2COc3ccc4c(-c5ccc(OC)cc5)cc(=O)oc4c3C2)cc1 | inactive: 65% |
| CC(=O)Nc1ccc(Nc2ccccc2)cc1 | inactive: 61% |
| CCc1ccc(-n2nc(C)c3c(C(=O)NCCc4ccc(OC)c(OC)c4)cc(C)nc32)cc1 | inactive: 81% |
| O=c1[nH]ncc(NCCc2ccccc2)c1Cl | inactive: 101% |
| COc1ccc(CNC(=O)Cn2ncn3nc(-c4cccs4)cc3c2=O)cc1 | inactive: 70% |
| Cc1ccc(-c2nc(S(=O)(=O)c3ccc(C)cc3)c(N3CCN(c4ccccc4)CC3)o2)cc1 | inactive: 97% |
| Cc1ccc(C)c(N2CCN(CCCNC(=O)Cn3ncc4c([nH]c5ccccc54)c3=O)CC2)c1 | inactive: 94% |
| COc1ccc2c(=O)c(NC(=O)NCCCN3CCCC3=O)c[nH]c2c1 | inactive: 93% |
| COc1ccc(N2CCN(S(=O)(=O)CCNC(=O)c3ccc(C(F)(F)F)cc3)CC2)cc1 | inactive: 99% |
| CCOC(=O)c1cc(OC(=O)c2ccc(Cl)cc2)n(-c2ccccc2)n1 | active: 85% |
| Cc1ccc(N(CC(=O)N2CCN(c3ccc(Cl)cc3)CC2)S(=O)(=O)c2c(C)noc2C)cc1 | inactive: 64% |
| COc1ccc(-c2nn(CC(=O)Nc3ccccc3F)c3c2cnc2ccc(F)cc23)cc1 | inactive: 83% |
| COc1ccc(C2C(=O)N(C3CCCCC3)CC(=O)N2Cc2ccccc2Cl)cc1OC (centres undefined) | inactive: 117% |
| COc1ccccc1N(CC(=O)Nc1ccccc1F)S(C)(=O)=O | inactive: 73% |
| CCCCN(CCCC)CCNC(=O)CN1C(=O)CSc2ccc(S(=O)(=O)N3CCCCC3)cc21 | inactive: 94% |

| Structure (SMILES) | survival |
| --- | --- |
| Cc1cccc(CN2C(=O)CC(c3ccc(Cl)cc3)c3c(C)nn(-c4nc(C)cc(C)n4)c32)c1 (centres undefined) | inactive: 72% |
| COc1ccc(C2NC(=O)c3c(sc4c3CCN(C)C4)N2)cc1O (centres undefined) | inactive: 51% |
| CCN(CCCNC(=O)c1cc2c(=O)[nH]c3ccc(C)cc3c2s1)c1ccc(C)cc1 | inactive: 68% |
| CCCNc1nc(NCc2ccccc2OC)c2cnn(C)c2n1 | inactive: 78% |
| CCc1ccc(NC(=O)C(CC)n2nnc(C(=O)OC)c2C(=O)OC)cc1 (centres undefined) | active: -3% |
| CCOc1ccc(-n2nc3cc(C)c(NC(=O)CC)cc3n2)cc1 | inactive: 73% |
| Cc1ccc(Cl)cc1N1CCN(S(=O)(=O)c2ccc3[nH]c4c(c3c2)CCCC4)CC1 | inactive: 72% |
| COc1ccccc1NC(=O)CN1C(=O)c2cccc3cccc1c23 | inactive: 62% |
| Cc1cccc(N2CCN(C(=O)C3CCN(S(=O)(=O)c4cn(C)cn4)CC3)CC2)c1C | inactive: 92% |
| CC(=O)NC1C(Oc2ccccc2C)OC2COC(C)(C)OC2C1O (centres undefined) | inactive: 73% |
| CCCCCn1c(=O)[nH]c2cc(C(=O)NCc3ccc(OC)cc3)ccc2c1=O | inactive: 71% |
| CCOC(=O)c1ccc(NC(=O)CCS(=O)(=O)c2ccc3c(c2)oc(=O)n3C)cc1 | inactive: 94% |
| O=C(NCc1ccc2c(c1)OCO2)c1ccc2c(c1)N(Cc1ccc(F)cc1)C(=O)c1ccccc1S2=O (centres undefined) | inactive: 95% |
| Cc1ccc2nc(N(Cc3cccnc3)C(=O)c3ccc4c(c3)OCCO4)sc2c1 | inactive: 70% |
| CCOCCc1nn2c(=O)cc(COC(=O)c3cccs3)nc2s1 | inactive: 134% |
| Cc1ccc(Cl)cc1Nc1nn2c(=O)c3ccc(C(=O)NCc4cccs4)cc3nc2s1 | inactive: 119% |
| COc1ccccc1NC(=O)C1CCN(S(=O)(=O)c2ccc3c(c2)oc(=O)n3C)CC1 | inactive: 88% |
| CCCN1C(=O)c2ccccc2CC1(C)C(=O)NC1CCCCC1 (centres undefined) | inactive: 101% |
| Cc1ccc(NC(=O)N2CCN(c3nnc(C)c4c(C)n(-c5ccccc5)nc34)CC2)cc1Cl | inactive: 94% |
| CCOc1ccccc1CNC(=O)c1cnc2sc(N3CCCC3)nn2c1=O | inactive: 90% |
| CCC(CO)Nc1ncnc2c1cnn2-c1ccc(C)cc1 (centres undefined) | active: -5% |
| CCOCCCn1c(SCC(=O)Nc2cccc(OC)c2)nc2ccccc2c1=O | inactive: 97% |
| COc1cccc(C(=O)NCC(=O)NN)c1 | inactive: 84% |

| Structure (SMILES) | survival |
| --- | --- |
| CCOc1ccc(NC(=O)NC(C)c2c(-n3cccc3)sc(C)c2C)cc1 (centres undefined) | inactive: 60% |
| O=C(Cn1nc(N2CCN(c3ccccc3)CC2)ccc1=O)NCc1cccc(Cl)c1 | inactive: 109% |
| Cc1cccc(OCCCCn2nnc3sc4c(c3c2=O)CCC(C)C4)c1 (centres undefined) | inactive: 76% |
| CCOc1ccccc1CNC(=O)CN1C(=O)CCCc2ccccc21 | inactive: 86% |
| N#Cc1c(SCC(=O)Nc2nccs2)nc(N2CCOCC2)c2c1CCCC2 | inactive: 112% |
| Cc1ccc(-n2ncc3c(NCCc4ccccc4)ncnc32)cc1C | inactive: 115% |
| Cc1ccc(C)c(CN2CCC(CNC(=O)Cn3ncc4c([nH]c5ccccc54)c3=O)CC2)c1 | inactive: 70% |
| CCn1c2ccccc2c2nnc(N3CCN(c4cccc(C)c4C)CC3)nc21 | inactive: 77% |
| O=C(Cc1cccs1)NC1CC(=O)N(c2ccccc2)C1 (centres undefined) | inactive: 88% |
| CCc1cccc(C)c1NC(=O)CN1CCCN(Cc2ccc(C)cc2)S1(=O)=O | active: 8% |
| COc1ccc(-c2c(C)nn3c(C(F)(F)F)cc(-c4ccc(Br)cc4)nc23)cc1 | inactive: 88% |
| Cc1cc(C)n2c(Nc3c(C)cccc3C)c(-c3ccsc3)nc2n1 | inactive: 72% |
| CCOC(=O)c1cc(-c2ccc(F)cc2)n(CC(=O)NC2CCCCC2)c1C | inactive: 66% |
| O=C(COc1ccccc1)Nc1ccc(C(=O)OCc2cc(=O)n3nc(C4CC4)sc3n2)cc1 | inactive: 76% |
| COc1ccc(-n2c(/C=C/c3cc(OC)c(OC)cc3OC)nc3cc4ccccc4cc3c2=O)cc1Cl | inactive: 115% |
| CCN(CC)CCNC(=O)C1CCN(S(=O)(=O)c2c(C)noc2/C=C/c2ccccc2F)CC1 | inactive: 73% |
| Cc1ccc(OCCSc2nc3ccc(NC(=O)COc4ccc(F)cc4)cc3s2)cc1 | inactive: 90% |
| O=C(O)Cn1c2ccccc2c2n[nH]c(=S)nc21 | inactive: 108% |
| CCOc1ccc(C(=O)Nc2ccc(-c3nc4cc(CC)ccc4o3)cc2)cc1 | inactive: 61% |
| O=C(c1cc2c(=O)[nH]c3ccccc3c2s1)N1CCN(c2ccc(F)cc2)CC1 | inactive: 51% |
